Values joined by “and” are separate entries in the source; they are usually repeats but may differ in a detail not shown here. Equal values may be shown once.
B1: S204E mutant IL-6 (ligand)
chain: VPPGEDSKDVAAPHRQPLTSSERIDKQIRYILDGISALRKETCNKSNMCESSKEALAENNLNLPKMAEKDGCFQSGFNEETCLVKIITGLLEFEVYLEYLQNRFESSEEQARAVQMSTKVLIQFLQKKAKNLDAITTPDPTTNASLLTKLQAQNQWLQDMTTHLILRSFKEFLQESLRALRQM
notes: As for F102E mutant: made from pT7flagHISIL-6; also called Ser204Glu mutant human IL-6
B2: E200W mutant IL-6 (ligand)
chain: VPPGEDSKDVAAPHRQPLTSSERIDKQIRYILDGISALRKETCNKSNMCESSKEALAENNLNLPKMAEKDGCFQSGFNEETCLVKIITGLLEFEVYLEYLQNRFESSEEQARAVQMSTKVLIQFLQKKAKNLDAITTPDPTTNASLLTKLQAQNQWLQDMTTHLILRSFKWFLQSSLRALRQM
notes: As for F102E mutant: made from pT7flagHISIL-6
B3: F106E mutant IL-6 (ligand)
chain: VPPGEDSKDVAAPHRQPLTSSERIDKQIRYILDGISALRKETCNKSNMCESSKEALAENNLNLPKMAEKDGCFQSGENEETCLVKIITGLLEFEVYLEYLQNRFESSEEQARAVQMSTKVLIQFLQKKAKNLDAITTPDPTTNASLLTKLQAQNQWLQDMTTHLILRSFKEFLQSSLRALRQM
notes: as for B2
B4: R207L mutant IL-6 (ligand)
chain: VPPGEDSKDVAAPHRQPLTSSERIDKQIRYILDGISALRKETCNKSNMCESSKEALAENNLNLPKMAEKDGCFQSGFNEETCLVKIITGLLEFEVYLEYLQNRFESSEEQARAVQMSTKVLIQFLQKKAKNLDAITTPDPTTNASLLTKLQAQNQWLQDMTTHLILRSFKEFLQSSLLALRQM
notes: as for B2
B5: Q211A mutant IL-6 (ligand)
chain: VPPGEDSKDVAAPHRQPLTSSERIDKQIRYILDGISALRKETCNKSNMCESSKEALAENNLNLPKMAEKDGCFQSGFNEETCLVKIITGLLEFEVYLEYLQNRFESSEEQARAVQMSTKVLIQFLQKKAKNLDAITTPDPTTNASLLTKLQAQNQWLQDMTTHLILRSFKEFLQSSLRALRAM
notes: as for B2
B6: R58E mutant IL-6 (ligand)
chain: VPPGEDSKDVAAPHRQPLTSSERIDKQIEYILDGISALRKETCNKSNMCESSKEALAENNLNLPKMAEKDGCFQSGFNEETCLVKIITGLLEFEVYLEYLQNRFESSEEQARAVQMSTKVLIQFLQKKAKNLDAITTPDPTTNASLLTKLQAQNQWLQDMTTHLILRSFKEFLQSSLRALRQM
notes: as for B2
B7: R207E mutant IL-6 (ligand)
chain: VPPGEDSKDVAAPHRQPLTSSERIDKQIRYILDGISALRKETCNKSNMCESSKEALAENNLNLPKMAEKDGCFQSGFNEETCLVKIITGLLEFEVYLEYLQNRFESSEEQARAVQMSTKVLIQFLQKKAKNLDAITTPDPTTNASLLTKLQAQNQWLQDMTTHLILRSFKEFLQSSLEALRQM
notes: As for F102E mutant: made from pT7flagHISIL-6; also called Arg207Glu mutant human IL-6
B8: F102E mutant IL-6 (ligand)
chain: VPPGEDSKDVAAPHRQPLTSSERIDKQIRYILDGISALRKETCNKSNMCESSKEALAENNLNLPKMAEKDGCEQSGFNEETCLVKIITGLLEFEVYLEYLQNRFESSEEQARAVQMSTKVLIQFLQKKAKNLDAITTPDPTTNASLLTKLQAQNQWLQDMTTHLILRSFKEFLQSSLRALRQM
notes: also called Phe102Glu mutant human IL-6
B9: Mature human IL-6 (ligand)
chain: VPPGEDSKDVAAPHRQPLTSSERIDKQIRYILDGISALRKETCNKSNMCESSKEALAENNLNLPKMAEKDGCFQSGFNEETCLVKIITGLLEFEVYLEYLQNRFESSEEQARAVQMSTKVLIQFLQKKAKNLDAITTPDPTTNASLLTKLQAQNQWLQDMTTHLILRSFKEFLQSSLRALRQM
notes: also called wt IL-6; wild type human IL-6

Molecular target: T1, Antibody 18 (GL) IgG
T1 construct: Germlined IgG1/kappa; also called Ab 18
T1 sequence (VH, as listed by the source, chain 1 of 2): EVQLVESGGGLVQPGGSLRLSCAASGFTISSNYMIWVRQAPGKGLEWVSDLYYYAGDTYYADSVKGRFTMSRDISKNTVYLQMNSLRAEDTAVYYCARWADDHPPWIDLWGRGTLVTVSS
T1 sequence (VL, as listed by the source, chain 2 of 2): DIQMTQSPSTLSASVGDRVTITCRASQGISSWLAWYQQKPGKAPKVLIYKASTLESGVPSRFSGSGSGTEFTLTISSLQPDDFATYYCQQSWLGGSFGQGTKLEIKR
Assay: IC50 ratio to wt IL-6, DELFIA competition
Source text: (§1) The epitope of Antibody 18 (GL) was compared with the epitopes of two anti-human IL-6 antibodies B-E8 and cCLB8. Both these antibodies are known to inhibit the binding of IL-6 to IL-6Ra and have been investigated as potential therapeutic agents. To enable comparisons of the epitopes of the three antibodies, a panel of IL-6 mutants were constructed that each contained a single amino acid mutation compared to the wild-type (wt) sequence. The binding of these mutants to the different antibodies was then evaluated in biochemical competition assays. These experiments were based on the biochemical competition assay described in Example 1.6, with changes in the concentrations of antibodies and IL-6 variants where required. Briefly, antibodies were coated on to the surface of a 96-well Nunc Maxisorp immunoassay plate at a concentration of either 2 nM (Antibody 18) or 4 nM (B-E8 and cCLB8) in PBS and incubated overnight at 4° C. After the surface of the wells was blocked using 3% (w/v) BSA in PBS, dilutions of the inhibitors at a concentration range of 200 nM to 10 pM mixed with biotinylated human IL-6 at a final concentration of 0.15 nM were added to the antibody coated wells and allowed to bind. Binding of the biotinylated IL-6 to the antibodies was measured using Europium labelled streptavidin.
(§2) By comparing the IC₅₀ values obtained for the mutants to unlabelled wild type human IL-6, a ratio of potency could be established for each mutant. Then, by comparing these ratios across the different antibodies, the effects of the individual mutations on the binding of the antibody to the IL-6 molecule could be evaluated. Typical results of these experiments are presented in Table 10 with the experiments being repeated on 2 further occasions.

| Potency Ratio | Binder |
| --- | --- |
| 108 | B1 |
| 2.13 | B2 |
| 5.28 | B3 |
| 535 | B4 |
| 1.5 | B5 |
| 2.01 | B6 |

Molecular target: T2, CNTO-328
T2 construct: also called cCLB8; chimeric human-mouse anti-IL-6 antibody
Assay: IC50 ratio to wt IL-6, DELFIA competition
Source text: as §1, §2

| Potency Ratio | Binder |
| --- | --- |
| 1.85 | B1 |
| 3.82 | B2 |
| 7.4 | B7 |
| 2.15 | B4 |
| 158 | B5 |
| 1.68 | B6 |
| 3.02 | B8 |

Molecular target: T3, B-E8
T3 construct: also called elsilimomab; murine anti-IL-6 antibody
Assay: IC50 ratio to wt IL-6, DELFIA competition
Source text: as §1, §2

| Potency Ratio | Binder |
| --- | --- |
| 2.43 | B1 |
| 2.29 | B2 |
| 12 | B3 |
| 379 | B4 |
| 3.21 | B5 |
| 79.1 | B6 |
| 57.2 | B8 |

Molecular target: T1, Antibody 18 (GL) IgG
Assay: IC50 ratio to wt IL-6 (the reference itself), DELFIA competition
Source text: as §1, §2

| Potency Ratio | Binder |
| --- | --- |
| 1 | B9 |

Molecular target: T2, CNTO-328
Assay: as above
Source text: as §1, §2

| Potency Ratio | Binder |
| --- | --- |
| 1 | B9 |

Molecular target: T3, B-E8
Assay: as above
Source text: as §1, §2

| Potency Ratio | Binder |
| --- | --- |
| 1 | B9 |

Molecular target: T1, Antibody 18 (GL) IgG
Assay: DELFIA competition; inhibitor titrated against 0.15 nM biotinylated human IL-6 on coated antibody
Source text: as §1, §2

| IC50 | binding result | Binder |
| --- | --- | --- |
| 0.27 nM and 0.205 nM and 0.239 nM and 0.245 nM |  | B9 |
| 25.7 nM |  | B1 |
| 0.522 nM |  | B2 |
|  | no binding (tested: 200 nM) | B7 |
| 1.43 nM |  | B3 |
| 131 nM |  | B4 |
| 0.307 nM |  | B5 |
| 0.479 nM |  | B6 |
| 84.1 nM |  | B8 |

Molecular target: T2, CNTO-328
Assay: as above
Source text: as §1, §2

| IC50 | Binder |
| --- | --- |
| 0.926 nM and 0.693 nM and 1.03 nM and 0.702 nM | B9 |
| 1.9 nM | B1 |
| 2.68 nM | B2 |
| 5.13 nM | B7 |
| 1.51 nM | B4 |
| 110 nM | B5 |
| 1.73 nM | B6 |
| 2.8 nM | B8 |

Molecular target: T3, B-E8
Assay: as above
Source text: as §1, §2

| IC50 | Binder |
| --- | --- |
| 0.276 nM and 0.265 nM and 0.198 nM and 0.248 nM | B9 |
| 0.483 nM | B1 |
| 0.568 nM | B2 |
| 3.31 nM | B3 |
| 94.1 nM | B4 |
| 0.851 nM | B5 |
| 15.7 nM | B6 |
| 15.8 nM | B8 |

Reference: patent US20150197568A1 (AstraZeneca / MedImmune, published 2015)
